The supplement of paper PMC8728848
Some of the results follow.

Experiments:
Assay in all cases: glycan array binding signal (z-score within array); higher = stronger binding
Settings in all cases: glycan notation: IUPAC condensed, linker removed
GlcNAc(b1-4)GlcNAc = molecular target: GlcNAc(b1-4)GlcNAc
How it was run: (§1)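 The binding signal is a Z-score computed within each array. Data were drawn from 3228 arrays in the Consortium for Functional Glycomics database, restricted to those with a known protein sequence. Scores were averaged over arrays of the same protein sequence at different concentrations or buffers, and over linkers, and negative values can be taken as non-binding.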

[1] = molecular target: GlcNAc(b1-4)GlcNAc(b1-4)GlcNAc
How it was run: as §1

[2] = molecular target: GlcNAc(b1-4)GlcNAc(b1-4)GlcNAc(b1-4)GlcNAc(b1-4)GlcNAc
How it was run: as §1

[3] = molecular target: GlcNAc(b1-4)GlcNAc(b1-4)GlcNAc(b1-4)GlcNAc(b1-4)GlcNAc(b1-4)GlcNAc
How it was run: as §1

[4] = molecular target: GlcNAc(b1-4)[GlcNAc(b1-6)]GalNAc
How it was run: as §1

[5] = molecular target: GlcNAc(b1-6)Gal(b1-4)GlcNAc
How it was run: as §1

GlcNAc(b1-6)GalNAc = molecular target: GlcNAc(b1-6)GalNAc
How it was run: as §1

[6] = molecular target: GlcNAc6S(b1-3)Gal(b1-4)GlcNAc
How it was run: as §1

Kdn(a2-3)Gal(b1-3)GalNAc = molecular target: Kdn(a2-3)Gal(b1-3)GalNAc
How it was run: as §1

Kdn(a2-3)Gal(b1-3)GlcNAc = molecular target: Kdn(a2-3)Gal(b1-3)GlcNAc
How it was run: as §1

Kdn(a2-3)Gal(b1-4)Glc = molecular target: Kdn(a2-3)Gal(b1-4)Glc
How it was run: as §1

Kdn(a2-3)Gal(b1-4)GlcNAc = molecular target: Kdn(a2-3)Gal(b1-4)GlcNAc
How it was run: as §1

[7] = molecular target: Kdn(a2-3)Gal(b1-4)[Fuc(a1-3)]GlcNAc
How it was run: as §1

Kdn(a2-6)Gal(b1-4)GlcNAc = molecular target: Kdn(a2-6)Gal(b1-4)GlcNAc
How it was run: as §1

[8] = molecular target: Man(a1-2)Man(a1-2)Man(a1-3)Man
How it was run: as §1

[9] = molecular target: Man(a1-2)Man(a1-2)Man(a1-6)[Man(a1-3)]Man
How it was run: as §1

Man(a1-2)Man(a1-3)Man = molecular target: Man(a1-2)Man(a1-3)Man
How it was run: as §1

[10] = molecular target: Man(a1-2)Man(a1-3)[Man(a1-2)Man(a1-6)]Man
How it was run: as §1

[11] = molecular target: Man(a1-2)Man(a1-3)[Man(a1-2)Man(a1-6)]Man(a1-6)[Man(a1-2)Man(a1-2)Man(a1-3)]Man
How it was run: as §1

[12] = molecular target: Man(a1-2)Man(a1-3)[Man(a1-2)Man(a1-6)]Man(a1-6)[Man(a1-2)Man(a1-2)Man(a1-3)]Man(b1-4)GlcNAc(b1-4)GlcNAc
How it was run: as §1

[13] = molecular target: Man(a1-2)Man(a1-3)[Man(a1-2)Man(a1-6)]Man(a1-6)[Man(a1-3)[Man(a1-6)]Man(a1-6)]Man(b1-4)GlcNAc(b1-4)GlcNAc
How it was run: as §1

[14] = molecular target: Man(a1-2)Man(a1-3)[Man(a1-6)]Man(a1-6)[Man(a1-2)Man(a1-3)]Man(b1-4)GlcNAc(b1-4)GlcNAc
How it was run: as §1

[15] = molecular target: Man(a1-2)Man(a1-6)[Man(a1-3)]Man(a1-6)[Man(a1-2)Man(a1-2)Man(a1-3)]Man
How it was run: as §1

[16] = molecular target: Man(a1-2)Man(a1-6)[Man(a1-3)]Man(a1-6)[Man(a1-2)Man(a1-2)Man(a1-3)]Man(b1-4)GlcNAc(b1-4)GlcNAc
How it was run: as §1

Man(a1-3)[Man(a1-6)]Man = molecular target: Man(a1-3)[Man(a1-6)]Man
How it was run: as §1

[17] = molecular target: Man(a1-3)[Man(a1-6)]Man(a1-6)[Man(a1-2)Man(a1-3)]Man(b1-4)GlcNAc(b1-4)GlcNAc
How it was run: as §1

[18] = molecular target: Man(a1-3)[Man(a1-6)]Man(a1-6)[Man(a1-3)]Man
How it was run: as §1

[19] = molecular target: Man(a1-3)[Man(a1-6)]Man(a1-6)[Man(a1-3)]Man(b1-4)GlcNAc(b1-4)GlcNAc
How it was run: as §1

[20] = molecular target: Man(a1-3)[Man(a1-6)]Man(b1-4)GlcNAc(b1-4)GlcNAc
How it was run: as §1

[21] = molecular target: Man(a1-3)[Man(a1-6)]Man(b1-4)GlcNAc(b1-4)[Fuc(a1-6)]GlcNAc
How it was run: as §1

Man(a1-6)Man = molecular target: Man(a1-6)Man
How it was run: as §1

Man(b1-4)GlcNAc = molecular target: Man(b1-4)GlcNAc
How it was run: as §1

MurNAc(b1-4)GlcNAc = molecular target: MurNAc(b1-4)GlcNAc
How it was run: as §1

Neu5Ac(a2-3)Gal = molecular target: Neu5Ac(a2-3)Gal
How it was run: as §1

[22] = molecular target: Neu5Ac(a2-3)Gal(b1-3)GalNAc
How it was run: as §1

[23] = molecular target: Neu5Ac(a2-3)Gal(b1-3)GalNAc(b1-3)Gal(a1-4)Gal(b1-4)Glc
How it was run: as §1

[24] = molecular target: Neu5Ac(a2-3)Gal(b1-3)GalNAc(b1-3)Gal(b1-4)GlcNAc
How it was run: as §1

[25] = molecular target: Neu5Ac(a2-3)Gal(b1-3)GalNAc(b1-4)[Neu5Ac(a2-3)]Gal(b1-4)Glc
How it was run: as §1

B1: AMA (Arum maculatun) (protein)
chain: MAKLLLLLLLPAIVGLAVPRSAAAVGSNYMLSGETLNTDGRLTNGELTLIMQVDCNLVLYHGGWQSNTANNGRDCKLTLTDFGELVIKSGTGSTVWSSGSKQSMKGNYAAVVHPEGRLVIYGPSVFKINPSGAGLNGLPLRNIPLTNNMLFSGQVLYGDGTLSARNHKLVMQGDCNMVLYGGKYGWQSNTHGNGKYCFAMLTHKGELVIRDDDFKSVWSSKSSSKQGDYVFILQDDSLAIIYGPAVFSTGSKKMISMVTN
glycan array binding signal (z-score) (GlcNAc(b1-4)GlcNAc): -0.179 | glycan array binding signal (z-score) [1]: -0.148 | glycan array binding signal (z-score) [2]: -0.169 | glycan array binding signal (z-score) [3]: -0.166 | glycan array binding signal (z-score) [4]: -0.215 | glycan array binding signal (z-score) [5]: -0.216 | glycan array binding signal (z-score) (GlcNAc(b1-6)GalNAc): -0.21 | glycan array binding signal (z-score) [6]: -0.202 | glycan array binding signal (z-score) (Kdn(a2-3)Gal(b1-3)GalNAc): -0.207 | glycan array binding signal (z-score) (Kdn(a2-3)Gal(b1-3)GlcNAc): -0.221 | glycan array binding signal (z-score) (Kdn(a2-3)Gal(b1-4)Glc): -0.209 | glycan array binding signal (z-score) (Kdn(a2-3)Gal(b1-4)GlcNAc): -0.213 | glycan array binding signal (z-score) [7]: -0.207 | glycan array binding signal (z-score) (Kdn(a2-6)Gal(b1-4)GlcNAc): -0.207 | glycan array binding signal (z-score) [8]: -0.21 | glycan array binding signal (z-score) [9]: -0.208 | glycan array binding signal (z-score) (Man(a1-2)Man(a1-3)Man): -0.211 | glycan array binding signal (z-score) [10]: -0.221 | glycan array binding signal (z-score) [11]: -0.215 | glycan array binding signal (z-score) [12]: 1.48 | glycan array binding signal (z-score) [13]: 3.87 | glycan array binding signal (z-score) [14]: 3.3 | glycan array binding signal (z-score) [15]: -0.213 | glycan array binding signal (z-score) [16]: 4.91 | glycan array binding signal (z-score) (Man(a1-3)[Man(a1-6)]Man): -0.207 | glycan array binding signal (z-score) [17]: 8.56 | glycan array binding signal (z-score) [18]: -0.2 | glycan array binding signal (z-score) [19]: 4.09 | glycan array binding signal (z-score) [20]: 3.64 | glycan array binding signal (z-score) [21]: 2.59 | glycan array binding signal (z-score) (Man(a1-6)Man): -0.197 | glycan array binding signal (z-score) (Man(b1-4)GlcNAc): -0.219 | glycan array binding signal (z-score) (MurNAc(b1-4)GlcNAc): -0.219 | glycan array binding signal (z-score) (Neu5Ac(a2-3)Gal): -0.213 | glycan array binding signal (z-score) [22]: -0.22 | glycan array binding signal (z-score) [23]: -0.213 | glycan array binding signal (z-score) [24]: -0.236 | glycan array binding signal (z-score) [25]: -0.22
